Results taken from the RNAGym collection of RNA variant scans (doi:10.7554/elife.90254).
The source gives no read counts; variants with many changes may rest on few reads.

B1: LINE1-mini (parent)
chain: GGCAGAGCUCAACACAGCGUGGCAAAGUGGCUGUGGCUAGACUGCC

Variants of: B1
Assay: self-cleavage, relative activity (ratio to wild type); higher = more cleavage; in vitro, sequencing; the parent is a self-cleaving ribozyme

Variant | self-cleavage
GGCGGAGCUCAACACAGCGCGGCAAGGUGGCUGUGGCUAGACUGCC [A4G U20C A26G] | 0.13
GGCGGAGCUCAACACAUCCUGGCAAAGUGGCUGUGGGUGGACUGCC [A4G G17U G19C C37G A39G] | 0.07
GGCGGAGCUCAACACAGCCUGGCCAAGUGGCUGUGGCUAGACUGCC [A4G G19C A24C] | 0.02
GGCGGAGCUCAACACAGCGUGGCAAAGUAGCUGUGGCUAGACUGGC [A4G G29A C45G] | 0.38
GGCUGCGCUCAACACAGCGUAGCAAAGUGGCUGUGGCUAAACUGAC [A4U A6C G21A G40A C45A] | 0.03
GGCGGAGCUCAACACAGCGUGACAAAGUAGCUGUGGCUAGACUGAC [A4G G22A G29A C45A] | 0.07
GGCGGAGCUCAACACAGCGUGGCAAAGUGGCUGUGGCUAUACUGUC [A4G G40U C45U] | 0.06
GGCGGAGCGCAACACAGCGUGGCAAAGUGGCUCUGGCUAGACUGCC [A4G U9G G33C] | 0.02
GGCGGAGCUCAACACAGCGCAGCAAAGUGGCUGUGGCUAGACUGCC [A4G U20C G21A] | 0.26
GGCGGAGCUCAACACAGCGGGGCAAAGUGGCUGUGGCUUUACUGCC [A4G U20G A39U G40U] | 0.14
GGCGGAGCUCAACACAUCGUGGCAAAGUGGCUGUGGCGAGACCGCG [A4G G17U U38G U43C C46G] | 0.04
GGCGGAGCUCAACACAGCGUGACAAAGUGGCUGUGGCUAGAAUGCC [A4G G22A C42A] | 0.07
GGCUGGGCUCAACACAGCGUGGCAAAGUGGCUGUGGCUAGACUACC [A4U A6G G44A] | 0.07
GGCGGAGCUCAACACAGCGUGGCAAAGUGGCUGAGGCUAGACUGUU [A4G U34A C45U C46U] | 0.1
GGCGGAGCUCAACACAGCGUGCCAAAGUGGCUGUGGCUAGAUUGCC [A4G G22C C42U] | 0.08
GGCGGAGCGCAACACAGCGUGGCAAAGUGGCUGUGGCUAGACUACC [A4G U9G G44A] | 0.08
GGCGGAGCGCAACACAGCGUGGCAAAGUGGCUGUGGCUAGACUCCC [A4G U9G G44C] | 0.04
GGCGGAGCUCAACACAGCGUGGCAAAAUGGUUGGGGCUAGACUGCC [A4G G27A C31U U34G] | 0.03
GGCGGAGCUCAACACAGCGUGGCAAAGUGGCUGUGUCUAUACAGUC [A4G G36U G40U U43A C45U] | 0.03

Variant | self-cleavage
GGCGGAGCUCAACACAGCGUGACAAAGUGGCUGUGCCUAGACUGCC [A4G G22A G36C] | 0.04
GGCGGAGCUCAACACAGCGUGGCAAAGUGGCUAUGGCCAGACUGCC [A4G G33A U38C] | 0.29
GGCGGAGCUCAACACAGCGCGGCAAAGAGGAUGUGGCUAGACUGCC [A4G U20C U28A C31A] | 0.44
GGCGGAGCUCAACACAGCGUGGCAAAGUGCCUGUGGCUAGACUGUC [A4G G30C C45U] | 0.6
GGCGGAGCUCAACACAGCGUGGCAAAGUUGCUCUUGCUAGAAUGCC [A4G G29U G33C G35U C42A] | 0.03
GGCUGCGCACAACACAGAGUGGCAAAGAGGCUGUGGCUAGACUGCC [A4U A6C U9A C18A U28A] | 0.06
GGCGGAGCACAACACAGCGUGGCAAAGUGGAUUUGGCUAGACUGCC [A4G U9A C31A G33U] | 0.22
GGCGGAGCAGAACACAGCGUGGCAAAGUGGCUGUGGCUAGACUGCC [A4G U9A C10G] | 0.02
GGCGGAGCUCAACACAGCGUGGCAAAGUGGCUGUGGCAAAACUGCC [A4G U38A G40A] | 0.04
GGCGGAGCUCAACACAGCGUGGCAAAGUGGCUGUGUUUAGACUGCC [A4G G36U C37U] | 0.01
GGCUGGGCUCAACACAGCGAGGCAAAGUGGCUUUGGCUAGACUGCC [A4U A6G U20A G33U] | 0.12
GGCGGAGCUCAACACAGCAUGGCAAAGUCGCUGUGGCUAGACUGCC [A4G G19A G29C] | 0.47
GGCGGAGCACAACACAGAGUGGCAAAGUGGCUGUGGCUAGACUGCA [A4G U9A C18A C46A] | 0.03
GGCGGAGCUCAACACAGCGCGGCAAAGUUGCUGUGGCUAGACUGCC [A4G U20C G29U] | 0.17
GGCGGAGCAUAACACCUCGUGGCAAAAUGGAUGUGGCUAGACUGCG [A4G U9A C10U A16C G17U G27A C31A C46G] | 0.04
GGCGGAGCUCAACACAGCGUCGCAAAUCGUCAGUGGCUAGACUGCC [A4G G21C G27U U28C G30U U32A] | 0.05
GGCGGAGCACAACACAGCGUGGCAAAGUGGCUGCGGCUAGACUGCC [A4G U9A U34C] | 0.04
GGCGGAGCUCAACACAGCGUGGCAAACUGGUUGUGGCUAGACUGCC [A4G G27C C31U] | 0.13
GGCGGAGCACUCCACUGCGUGGCAAAGUGGCUGGGGCUAACCUGCC [A4G U9A A11U A12C A16U U34G G40A A41C] | 0.01

Variant | self-cleavage
GGCGGAGCUCAACACAGCGUGGCAAAGGGGCUGUGCCUAGACUGCC [A4G U28G G36C] | 0.05
GGCGGAGCUCAACACAGCGUCGAGAAGUGGCUGUGGCUAGAUUGCC [A4G G21C C23A A24G C42U] | 0.07
GGCUGGGCUAAACACAGCGUGACAAAGUGGCUGUGUCUAGACUGCC [A4U A6G C10A G22A G36U] | 0.02
GGCGGAGCUCAACACAUCGUGGCAAAGUGACUGUGGCUGGAAUGCC [A4G G17U G30A A39G C42A] | 0.03
GGCGGAGCUCAACACAGCUAGCCAUAGUGGCUGUGGCUAGACUGCC [A4G G19U U20A G22C A25U] | 0.35
GGCGGAGCGCAACACAGCCUGACAAAGUGGCUGUUGCUAGUCUGCC [A4G U9G G19C G22A G35U A41U] | 0.01
GGCGGAGCUCAACACAGCGUGUCAAAGUGGAUGUGGCUAGAUUGCC [A4G G22U C31A C42U] | 0.36
GGCGGAGCUCAACACAGCGUGGCAAAGUGGCUGUGUAUAGUCUGCC [A4G G36U C37A A41U] | 0.09
GGCGGAGCUCAACACAGCGUGGCAAAGUGGCUGUGGCGAGACUGCA [A4G U38G C46A] | 0.03
GGCUGCGCUCAACACAGCGUGGUAAAGUGGCUGUGACUAGAGUGGC [A4U A6C C23U G36A C42G C45G] | 0.02
GGCGGAGCUCAACACAUCGUGGAAAAGUAGCUGUGGCUUGACUGCC [A4G G17U C23A G29A A39U] | 0.1
GGCGGAGCUCAACACAUCAUGGCAAAGUCGCUGUGAAUAGACUGCC [A4G G17U G19A G29C G36A C37A] | 0.15
GGCGGAGCUCAACACAGCUUGGCAAAGUGGCUGUUUCUAGACUGCC [A4G G19U G35U G36U] | 0.21
GGCGGAGCUCAACACAUCGUGGCAAAGUGGCUGUCGCUGGACUGCC [A4G G17U G35C A39G] | 0.05
GGCGGAGCUCAACACAGCGUGGCAAAGUGGCUCUGGUUAGACAGCC [A4G G33C C37U U43A] | 0.02
GGCGGAGCUCAACACAUCGCGGCAAAGUGGCAGUGGCUAGACUGCC [A4G G17U U20C U32A] | 0.05
GGCUGCGCUCAACACAGCGUGGCAAAGUGGCUGGGGCUAGACAGCC [A4U A6C U34G U43A] | 0.01
GGCGGAGCUCAACACAGCGUGGCAAAGUGGCGGUGGCUAGGCUGCC [A4G U32G A41G] | 0.03
